Hit rate of the full screen: of about 7,900 compounds, about 400 (5.1%) showed an effect of 50% or more. This is one part of the list.
target: Parkinson's disease protein 7 (PARK7/DJ1) (human, UniProt Q99497); assay: primary screen, percent inhibition; read as competition with a fluorescent probe by fluorescence polarization; higher = more effect of the substance; conditions: 100 µM
In short: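 Fluorescence-polarization probe displacement (JYQ-107, 20 nM final, 2 h) after 2 h preincubation of PARK7 (0.2 μM final) with each fragment at 100 μM final. Read-out ex/em 480/520 nm; remaining activity derived from FP signal loss relative to reference controls.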

Parkinson's disease protein 7 (PARK7/DJ1), sequence (Q99497 whole entry, looked up, the tested form may be a part): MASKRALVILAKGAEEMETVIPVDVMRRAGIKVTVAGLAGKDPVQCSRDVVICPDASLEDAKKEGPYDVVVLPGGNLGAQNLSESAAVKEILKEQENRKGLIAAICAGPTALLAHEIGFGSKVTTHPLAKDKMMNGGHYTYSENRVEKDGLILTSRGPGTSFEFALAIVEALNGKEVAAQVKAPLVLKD

Row | Compound | Inhibition %
1 | C=CC(=O)N1CC(OC)Cc2ccccc21 (stereo not shown) | 13.5%
2 | C=CC(=O)NC1CCCc2occc21 (stereo not shown) | 3.08%
3 | C#CC(=O)N1CCC(O)C1 (stereo not shown) | 6.99%
4 | CCOc1ccc(-c2n[nH]c(=O)o2)cc1 | 10.3%
5 | CC1(C)OB(c2cccc(OCCN3CCCCC3)c2)OC1(C)C | -0.0143%
6 | C=CC(=O)NCCc1ccc(F)cn1 | -26.8%
7 | C=CC(=O)N1CCCC1c1cc(C)no1 (stereo not shown) | 10.8%
8 | Cc1nn(C)c(Cl)c1C=CC(=O)N1CCCC(C(C)N)C1.Cl (stereo not shown) | 10.2%
9 | CC1(C)OB(c2cc(Cl)ccc2C2CC2)OC1(C)C | 4.29%
10 | C=CC(=O)N1CCOC(C2CCCO2)C1 (stereo not shown) | 7.18%
11 | C=CC(=O)N[C@@H]1C[C@H]1[C@@H]1C[C@H]1C (mixture of isomers) | 7.3%
12 | C=CC(=O)N1CC(F)(c2ccccc2)C1 | 10.9%
13 | COC(=O)C1CCN(C(=O)CCl)CC1 | 11.9%
14 | C=CC(=O)N[C@H]1CCCC[C@H]1n1cc(C(C)(C)O)nn1 | 5.13%
15 | C=CC(=O)N1CCOCC2(CCOCC2)C1 | 8.17%
16 | O=c1cn[nH]c(S)n1 | 74.8%
17 | C=CC(=O)NCC1CC(C)=NO1 (stereo not shown) | -1.19%
18 | C=CC(=O)NCC1SCCc2ccccc21 (stereo not shown) | 4.59%
19 | FC(F)(F)c1ccc(S)nc1 | 26.5%
20 | N#Cc1ccnc(NC2CCCCCC2)n1 | 4.9%
21 | N#CC(=Cc1c[nH]c2ccccc12)C(N)=S | 12%
22 | CCn1cc(B2OC(C)(C)C(C)(C)O2)cn1 | 14.9%
23 | Cc1cccc2cc(B(O)O)cnc12 | 13.1%
24 | Cc1cnc(NC(=O)CCN2C(=O)CCC2=O)s1 | 8.1%
25 | C=CC(=O)N(C1CC1)C1COC1 | 25%
26 | C=CC(=O)NC1CC(C)(OC)C1(C)C (stereo not shown) | 8.48%

Row | Compound | Inhibition %
27 | O=C(CCl)NCCOc1ccc(Cl)cc1 | 20.3%
28 | C=CC(=O)NCc1ccccc1-c1cnn(C)c1 | 1.76%
29 | CCOc1ccc(S(=O)(=O)n2cc(C)nc2CC)cc1C | 9.41%
30 | CCN(C(=O)CCl)c1nc2ccccc2s1 | 24.6%
31 | O=C(C=Cc1c(Cl)nc2ccccn12)N1CCCCC1 | 4.67%
32 | Cn1cc(CNC(=O)c2cccnc2S)c(C(F)(F)F)n1 | 9.8%
33 | COc1cc(OC)c(NC(=O)CCl)cc1Cl | 3.54%
34 | CC(C)NC(=O)C(C#N)=Cc1ccc(Cl)cc1 | 6.67%
35 | N#Cc1cccc(S(=O)(=O)F)c1 | 97.3%
36 | O=C1CCC(=O)N1CCC(=O)N1CCCC1C1CCCC1 (stereo not shown) | 5.37%
37 | Cn1cc(B2OC(C)(C)C(C)(C)O2)cn1 | 4.89%
38 | Cc1ccc(OCc2ccccc2Cl)c(B(O)O)c1 | -0.0143%
39 | C=CC(=O)N1CC2COCC2(C)C1 (stereo not shown) | 9.87%
40 | CC(NS(=O)(=O)C=Cc1ccccc1)C1CCCO1 (stereo not shown) | 7.19%
41 | Cc1c(Cl)ccc(S(=O)(=O)n2ccnc2)c1Cl | 11.8%
42 | C=CC(=O)NCC1(c2ncccc2C)CC1 | 1.59%
43 | CN(Cc1ccccc1)C(=O)C=CC(=O)O | 23.5%
44 | C=CC(=O)N1Cc2ccccc2OC(C)C1 (stereo not shown) | 11.8%
45 | Cc1ccc(C=CS(=O)(=O)NC2CCS(=O)(=O)C2)cc1 (stereo not shown) | 4.34%
46 | O=C1OCCC1N1CCCCCCC1 (stereo not shown) | 4.79%
47 | C=CC(=O)NC1CC(=O)N(C(C)(C)C)C1 (stereo not shown) | 2.35%
48 | O=C(O)C1CCCN(C(=O)C=Cc2ccc(Cl)s2)C1 (stereo not shown) | 13.1%
49 | O=C(CN1CCSC1=O)Nc1cn[nH]c1 | 11.7%
50 | O=C(O)C1CC(O)CN1C(=O)C=Cc1ccc(F)cc1 (stereo not shown) | 2.28%
51 | C1CC(CC2CO2)CO1 (stereo not shown) | 9.78%
52 | O=S(=O)(F)c1ccc(S(=O)(=O)Nc2ccsc2)cc1 | 27.7%

Row | Compound | Inhibition %
53 | C=CC(=O)NCC1OCCc2ccccc21 (stereo not shown) | 7.98%
54 | C=CC(=O)N[C@H]1C[C@H](c2ccccc2Cl)C1 | 6.65%
55 | O=Cc1cccc(C(=O)O)c1O | 24.2%
56 | SCc1cccc2cccnc12 | 5.59%
57 | CC1(C)OB(C2=CCOC2)OC1(C)C | 8.39%
58 | O=C(CCl)NCCc1c(F)cccc1F | 42.8%
59 | Cc1ccc(C)c(S(=O)(=O)n2ccc(C)n2)c1 | 15.2%
60 | CCCN1CCCN(c2ccc(C#N)nc2)CC1 | 7.34%
61 | O=C(NC1CCN(C(=O)CCl)CC1)c1ccccc1 | 18.9%
62 | O=C(O)C=CC(=O)NCc1cccnc1 | 2.99%
63 | Cc1cc(C(=O)Cn2cnc(C#N)n2)c(C)s1 | 2.94%
64 | O=C(O)C(S)c1ccccc1 (stereo not shown) | 89.9%
65 | CC(NC(=O)C1CSC(=O)N1)c1csc2ccccc12 (stereo not shown) | 4.69%
66 | CCOc1ccc(S(=O)(=O)n2ccnc2C)c(C)c1C | 0.685%
67 | C=CC(=O)NC1CCCCC1C(C)C (stereo not shown) | 1.11%
68 | CC(C)c1ccc(C(=O)NCc2cc(=O)[nH]c(S)n2)cc1 | 10.5%
69 | Cl.Cl.NCC1CCCCN1C(=O)C=Cc1cccnc1 (stereo not shown) | 11.4%
70 | O=C1CN=C(S)N1c1ccccc1F | 3.7%
71 | Cc1nc(C2(NC(=O)CCl)CCCCC2)no1 | 10.8%
72 | Cn1ccc(-c2nc(C#N)cs2)n1 | -0.539%
73 | O=C1CN(C(=O)CCl)c2ccccc2N1 | 56.7%
74 | C=CC(=O)N1CCN2C(=O)CCC2C1 (stereo not shown) | 5.02%
75 | CCn1nc(-c2nccs2)cc1B1OC(C)(C)C(C)(C)O1 | 2.75%
76 | CC(O)(CC1CO1)C1CC1 (stereo not shown) | 2.84%
77 | N#Cc1cccc(N2CCCCC2CC(N)=O)n1 (stereo not shown) | 28.3%
78 | C=CC(=O)N1CCCC(c2ncc(C)s2)C1 (stereo not shown) | 7.9%

Row | Compound | Inhibition %
79 | C=CC(=O)Nc1cnn(CC(F)F)c1 | 6.39%
80 | Cn1c(=O)c2c(nc(Cl)n2CCS(=O)(=O)F)n(C)c1=O | 3.18%
81 | CC1CC1C(=O)N1CCC(CS(=O)(=O)F)C1 (stereo not shown) | 96.8%
82 | CC1CN(CCCNC(=O)CCl)CC(C)O1.Cl (stereo not shown) | 15.6%
83 | CC(C)CNC(=O)c1ccccc1NC(=O)CCl | 8.8%
84 | O=C(CCl)c1ccc(F)cc1 | 32.3%
85 | O=C1CC(CC(=O)N2CC3C4CCC(C4)C3C2)CO1 (stereo not shown) | 4.62%
86 | COc1ccccc1Cn1cnc(C#N)n1 | -1.08%
87 | C=CC(=O)N1CCN(C2CC2)c2c(Cl)cccc21 | 2.34%
88 | Cc1csc(N(C(=O)CCl)c2ccccc2)n1 | 87.3%
89 | N#Cc1ncn(CC(N)=O)n1 | 8.69%
90 | CC1CN(C(=O)CCl)CC(C)O1 (stereo not shown) | 19.8%
91 | Cc1ccc(C(C)NC(=O)Cn2cnnc2C#N)cc1C (stereo not shown) | 6.52%
92 | C=CC(=O)N1CCn2c(cc3cc(Cl)ccc32)C1 | 14.2%
93 | CC1(C)OB(c2ccc(CN3CCCCC3)cc2)OC1(C)C | 2.94%
94 | CN(Cc1ccc(OC(F)F)cc1)C(=O)CCl | 51.1%
95 | N#CC(=Cc1ccc(F)c(F)c1)C(=O)NC1CC1 | 8.96%
96 | OC1(C2CO2)CCCC1 (stereo not shown) | 3.59%
97 | Cn1nccc1C=CC(=O)N1CCC(C)(C(=O)O)C1 (stereo not shown) | 1.54%
98 | Cc1ccc(C2=NN(C(=O)CCl)C(c3ccco3)C2)o1 (stereo not shown) | 11.4%
99 | O=S(=O)(F)c1ccccc1Br | 44.3%
100 | CCCc1cc(=O)[nH]c(S)n1 | 8.86%
101 | O=C(NCCCC1CCCCC1O)c1cccnc1S (stereo not shown) | 6.16%
102 | C=CC(=O)NCC12CCC(CC1)C2 | 5.55%
103 | Cc1ccc(C(NC(=O)CCl)C2CC2)cc1 (stereo not shown) | 1.1%
104 | C=CC(=O)N(Cc1ccccc1Cl)C1COC1 | 29.3%

Row | Compound | Inhibition %
105 | CC(CCl)Cn1ccnc1.Cl (stereo not shown) | 6.72%
106 | Cc1coc(B2OC(C)(C)C(C)(C)O2)c1 | 4.69%
107 | CS(=O)(=O)O[C@H]1CC[C@H](c2ccccc2)CC1 | 11.3%
108 | CC(C)(C)c1nc(C#N)c(N2CCC(C(N)=O)CC2)o1 | 11.7%
109 | C=CC(=O)NC1CC(C(C)(C)C)C1 (stereo not shown) | 14%
110 | Cc1c(B2OC(C)(C)C(C)(C)O2)ccc2ccccc12 | 3.03%
111 | C=CC(=O)NCC1(C)CCOC1 (stereo not shown) | 9.38%
112 | N#CSCc1nc2ccccc2[nH]1 | 24.5%
113 | CC(=O)NCCc1cc(C(=O)CCl)ccc1F | 83.3%
114 | O=S(=O)(c1cc(Cl)ccc1Cl)n1ccnc1 | 7.81%
115 | Cl.O=C(CCl)Nc1ncc[nH]1 | 1.78%
116 | O=S(=O)(F)c1ccc(F)cc1 | 2.62%
117 | Cc1cc(C(=O)CCl)c(C)n1-c1ncn[nH]1 | 60%
118 | O=C(NCC1(CCO)CCC1)c1cccnc1S | 5.07%
119 | N#Cc1ncn(-c2ncc(C(F)(F)F)cc2Cl)n1 | 6.83%
120 | Cc1nn(C)c2sc(B3OC(C)(C)C(C)(C)O3)cc12 | 1.59%
121 | N#CC(c1ccccc1)N1CCN(C(=O)CCl)CC1 (stereo not shown) | 18.3%
122 | O=C(NCc1ccc2c(c1)OCO2)Oc1ccccc1 | -3.7%
123 | C=CC(=O)Nc1ccc(C#N)cc1 | 4.08%
124 | COC(=O)c1ccnc(C#N)c1 | 7.37%
125 | CC1CN(c2oc(-c3ccccc3)nc2C#N)CC(C)O1 (stereo not shown) | 2.19%
126 | C=CC(=O)N(C)C1CCOCC1OC (stereo not shown) | 6.6%
127 | N#CC(=Cc1ccc(F)c(F)c1)C(N)=O | 2.39%
